Drawing on the RNAGym collection of RNA variant scans (doi:10.7554/elife.90254), this text covers self-cleavage for 41 variants.

The source gives no read counts; variants with many changes may rest on few reads.

First the molecules themselves.
B1: OR4K15 (parent)
chain: GUUAACGGUCAUAGGCCAUGGAAACUAGGAGCACCAUUUCGCUGCCAGUGAAGAAAUGAACAAAGAAAAUCUGGGCCAGGCAGGCAUCAAAAGAAAUAGUCUUGCGCUCAACCAGAAAGUCUGUAAUCAUUUUAAGGGUA

The variants in this series derive from B1. In words: self-cleavage, relative activity (ratio to wild type); higher = more cleavage; in vitro, sequencing; the parent is a self-cleaving ribozyme.
As to GUUAACGGUCAUAGGCCAUGAAAACUAGGAGCACCAUUUCGCUGCCAGUGAAGAAAUGAACAAAGAAAAUCUGGGCCAGGCAGGCAUCAGAGGAAAUAGUCUUGCGCUCAACCAGGAAGUCUGUAAUCAUUUUAAGGGUA [G21A A90G A92G A116G], the self-cleavage was determined as 0.14. With GUUAACGGUCAUAGGCCAUAGAAACUAGGAGCACCAUUUCGCUGCCAGUGAAGAAAUGAACAAAGAAAAUCUGGGCCUGGCAGGCAUCAAAAGAAAUAGUCUUGAGCACAACCGGAAAGUCUGUAAUCAUUUUAAGGGUA [G20A A78U C105A U108A A114G] the figure was 0.01; with GUUAACGGUCAUAGGCCAUAGAAACUAGGAGCACCAUUUCGCUGCCUGUGAAGAAAUGAACAAAGAAAAUCUGGGCCAGGCAGGCAUCAAAAGAAAUAGUCUUGCGCUCAACCAGAAAGUCUGUAAUCAUUUUAAUGGUA [G20A A47U G136U], 1.09. Regarding GUUAACGGUCAUAGGCCAUAGAAACUAGGAGCACCAUUUCGCUGCCAGUGAAGAAAUGAACAAAGAAAAUCUGGGCCAGGCAGGCAUCAGAAGAAUUAGUCAUGCGCACAACCAGAAAGUCUGUAAUCACUUUAAGGGUA [G20A A90G A96U U102A U108A U130C], the self-cleavage stood at 0.01. With GUUAACGGUCAUAGGCCAUGCAAACUAGGAGCACCAUUUCGCUGCCAGUGAAGAAAUGAACAAGGAAAAUCUGGGCCGGGCAGGCAUCAAAAGAAAUAGUCUUGCGCUCAACCAGAAAGUCUGUAAUCAUUUUAAGGGUA [G21C A64G A78G], the self-cleavage is 0.21. With GUUAACGGUCAUAGGCCAUGAGAACUAGGAGCACCAUUUCGCUGCCAGUGAAGACAUGAACAAAGAAAAUCUGGGCCAGGCAGGCAUCAAAAGAAAUAGUCUUGAGCUCAACCAGAAAGUCUGUAAUCAUUUUAAGGGUA [G21A A22G A55C C105A] the figure was 0.07. To GUUAACGGUCAUAGGCCAUAGAAACUAGGAGCACCAUUUCGCCGCCAGUGAAGAAAUGAACAAAGAAGAUCUGGGCCAGGCAGGCAUCAAAAGAAAUAGUCUCGCGCUCAACCAGAAAGUCUGUAAUCAUUUUAAGGGUA [G20A U43C A68G U103C] belongs 1.57; to GUUAACGGUCAUAGGCCAUAGAAACUAGGAGCACCAUUUCGCUGCCAGUGAAGAAAUGAACAAGGAAAAUCUGGGCCAGGCAGGCAUCAAAGGAAAUAGUCUUGCGCACAACCAGAAAGUCUGUAAUCAUUUUAAGGGUA [G20A A64G A92G U108A], 0.03; to GUUAACGGUCAUAGGCCAUCGAAACUAGGAGCACCAUUUCGCUGCCAGUGAAGAAAUGAACAAGGAAAAUCUGGGCCAGGCAGGCAUCAAAAGAAAUAGUCUUGCGCUCAACCAGAAAGUCUGUAAUCAUUUUGGGGGUA [G20C A64G A134G A135G], 1.87. With GUUAACGGUCAUAGGCCAUGAAAACUAGGAGCACCAUUUCGCUGCCAGUGAAGAAAUGAACAAAGAUAAUCUGGGCCAGGCAGGCACCAAAAGAAAUAGUCUUGCGCUCAACCAGAAAGUCUGUAAUCAUUUUAAGGGUA [G21A A67U U87C] the figure was 1.6; with GUUAACGGUCAUAGGCCAUGAAAACUAGGAGCACCAUCUCGCUGCCAGUGUAGAAAUGAACAAAGAAAAUCUGGGCCAGGCAGGCAUCAAAAGAAAUAGUCUUGCGCUCAACCAGAAAGUCUGUAAUCAUUUUAAGGGUA [G21A U38C A51U], 1.55.

As to GUUAACGGUCAUAGGCCAUGCAGACCAGGAGCACCAUUUCGCUGCCAGUGAAGAAAUGAACAAAGAAAAUCUGGGCCAGGCAGGCAUCAAAAGAAAUAGUCUUGCGCUCAACCAGAAAGUCUGUAAUCAUUUUAAGGGUA [G21C A23G U26C], the self-cleavage amounted to 1.24. With GUUAACGGUCAUAGGCCAUAGAAACUAGGAGCACCAUUUCGCUGCCGGUGAAGAAAUGAACAAAGAAAAUCUGGGCCAGGCAGGCAACAAAAGAAAUAGUCUUGCGCUCAACCAGAAAGUCUGUAAUCAUUUUAAGGGUA [G20A A47G U87A] the figure was 1.16. For the variant GUUAACGGUCAUAGGCCAUUGAAACUAGGAGCACCAUUUCGCUGCCAGUGAAGAAAUGAACAAAGAAAAUCUGGGCCAGGCAGGCAUCAAAUGUAGAAGUCUUGCGCUCAACCAGAAAGUCUGUAAUCGUUUUAAGGGUA [G20U A92U A94U A96G U97A A129G], the self-cleavage was found to be 1.67. To GUUAACGGUCAUAGGCCAUGAAAACUAGGAGCACCAUUUCGCUGCCAGUGAAGAAACGAACAAAGAAAAUCUGGGCCAGGCAGGCAUCAAAAGAGAUAGUCUUGCGCUCAACCAGAAAGUCUGUAAUCAUUUUAAGGGUA [G21A U57C A95G] belongs 1.73. To GUUAACGGUCAUAGGCCAUGUAUACUAGGAGCUCCAUUUCGCUGCCAGUGAAGAAAUGAACAAAGAAAGUCUGGGCCAGGCAGGCAUCAAAAGAAAUAGUCCUGCGCUCAACCAGAAAGUCUGUAGUCAUUUUAAGGGUA [G21U A23U A33U A69G U102C A126G] belongs 1.75; to GUUAACGGUCAUAGGCCAUUGAAACUAGGAGCACCAUUUCGCUGCCAGUGAAGAAAUGAACAAAGAAAAUCUGGGCCAGGCAGGCAUCAAAAGAAAUUGUCUCGCGCUCAACCAGAAAGUCUGUAAUCAUUUUAAGGGUA [G20U A98U U103C], 2.37. Turning to GUUAACGGUCAUAGGCCAUUGAAACUAGGAGCAGCAUUUCGCUGCCAGUGAAGAAAUGAACAAAGAAAAUCUGGGCCAGGCAGGCAUCAAAAGAAAUAGUCUUGCGCUCAACCAGAAAGUCAGUAAUCAUUUUAAGGGUA [G20U C34G U122A], the self-cleavage stood at 0.92. As for GUUAACGGUCAUAGGCCAUAGAAACUAGGAGCACCAUUUCGCUGCCAGUGAAGAAAUGAACAAAGAGAAUCUGGGCCAGGCAGGCGUCAACAGAAAUAGUCCUGCGCUCAACCAGAAAGUCUGUAAUCACUUUAAGGGUA [G20A A67G A86G A91C U102C U130C], the self-cleavage worked out at 1.55. With GUUAACGGUCAUAGGCCAUGUAAACUAGGAGCACCAUUUCGCUGCCAGUGAAGAAAUUAACAAAGAAAAUCUGGGCCAGGCAGGCAUCAAAAGAAAUAGUCUUGCGCUCAACCAGGAAGUCUGUAAUCAUUUUAAGGGUA [G21U G58U A116G] the figure was 0.69; with GUUAACGGUCAUAGGCCAUGAAAACUAGGAGCACCAUUUCGCUGCCAGUGAAGAAACGAACAAAGAAAAUCUAGGCCAGGCAGGCAUCAAAAGAAAUAGUCUUGCGCUCAACCAGAAAGUCUGUAAUCAUUUUAAGGGUA [G21A U57C G73A], 0.14. To GUUAACGGUCAUAGGCCAUUGAAACUAGGAGCACCAUUUCGCUGCCAGUGAAGAAAUGAACAGAGAAAAUCUGGGCCAGGCAGGCAUUAAAAGAAAUAGUCUUGCGCUCAACCAGAAAGUCUGUAAUCAUUUUAAGGGUA [G20U A63G C88U] belongs 1.41; to GUUAACGGUCAUAGGCCAUGAAAACUAGGGGCACCAUUUCGCCGCCAGUGAAGAAAUGAACAAAGAAAAUCUGGGCCAGGCAGGCAUCAAAAGAAAUAGUCUUGCGCUCAACCAGAAAGUCUGUAAUCAUUUUAAGGGUA [G21A A30G U43C], 1.57; to GUUAACGGUCAUAGGCCAUGAGAACUAGGAGCACCAUUUCGCUGCCAGUGAAGAAAUGAACAAAGAAAAUCUGGGCCAGGCAGGCAUCAAAAGAAAUAGUCUUGCGCUCAGCCAGAAAGUCUGUAAUCAUUCUAAGGGUA [G21A A22G A111G U132C], 0. With GUUAACGGUCAUAGGCCAUGAAAACUAGGAGCACCAUUUCGCUGCCAGUGAAGAAAUGAACAAAGAAAAUCUGGGCCAGGCAGGCAUCAGAAGAAAUAGUCUUGCGCUCAACCAGAACGUCUGUAAUCAUUUUAAGGGUA [G21A A90G A118C] the figure was 0.43; with GUUAACGGUCAUAGGCCAUGAAAACUAGGAGCACCAUUUCGCUGCCAGUGAAGAAAUGAACAAAGAAAAUCUGGGCCAGGCAGGCAUCGAAAGAAAUAGUCUUGCGCUCUACCAGAAGGUCUGUAAUCAUUUUAAGGGUA [G21A A89G A110U A118G], 0.68.

As for GUUAACGGUCAUAGGCCAUAGAAACUAGGAGCACCAUUUCGCUGCCAGCGAAGAAAUGAACAAAGAAAAUCAGGGCCAGGCAGGCAUCAAAAGAAGUAGUCUUGCGCUCAACCAGAAAGUCCGUAAUCAUUUUAAGGGUA [G20A U49C U72A A96G U122C], the self-cleavage is 0.2. With GUUAACGGUCAUAGGCCAUGAAAACUAGGAGCACCAUAUCGCUGCCAGUGAAGAAUUGAACAAAGAAAAUCUGGGCCAGGCAGGCAUCAAAAGAAAUAGUCUUGCGCUCAACCAGAACGUCUGUAAUCAUUUUAAGGGUA [G21A U38A A56U A118C] the figure was 0.7; with GUUAACGGUCAUAGGCCAUCGAAACUAGGAGCACCAUUUCGCUGCCAGUGAAGAAAUGAACGAAGAAAAUCUGGGCCGGGCAGGCAUCAAAAGAAAUAGUCUUGCGCUCAACCAGGAAGUCUGUAACCAUUUUAAGGGUA [G20C A62G A78G A116G U127C], 0.05; with GUUAACGGUCAUAGGCCAUAGAAACUAGGAGCACCAUUUCGCUGCCAGUGAAGAAAUGAACAAAGAAAAUCCGGGCCAGGCAGGCAUCAAAAGGAAUAGUCUUGCGCUCAACCAGAAAGUCUGUAAUCAUUUUAAGGGUA [G20A U72C A94G], 0.24. With GUUAACGGUCAUAGGCCAUGAAAACUAGGAGCACCAUUUCGCUGCCGGUGAAGAAAUGAGCAAAGAAAAUCUGGGCCAGGCAGGCAUCAAGAGAAAUAGUCUUGCGCUCAACCAGAAAGUCUGUAAUCAUUUUAAGGGUA [G21A A47G A60G A91G] the figure was 0.74. With GUUAACGGUCAUAGGCCAUUGAAACUAGGAGCACCAUUUCGCUGCCAGUGAAGAAAUGAACAAAGAAAAUCUGGGCCAGGCAGGCAUCAAAAGAAAUAGUCUUGCGCUCAACCAGAAAGUCUGUAAUCGUUCUAAGGGUA [G20U A129G U132C] the figure was 1.97. On to GUUAACGGUCAUAGGCCAUGAAAACUAGGAGCACCAUUUCGCUGCCAGUGAAGAAGUGAACAAAGAAAAUCUGGGCCAGGCAGGCAUCAAAAGAAAUAGUCUUGCGCUCAACCAGAAAGUCUGUAAUCAUUUUAUGGGUA [G21A A56G A135U], for which the self-cleavage came to 1.54. With GUUAACGGUCAUAGGCCAUAGAAACUAGGAGCACCAUUUCGCUGCCAGCGAAGAAAUGAACAAAGAAAAUCUGGGCCAGGCAGGCAUCAAAAGAAAUAGUCUUGCGCUCAACCAGGAAGUCUGCAAUCAUUUUAAGGGUA [G20A U49C A116G U124C] the figure was 0.27. Take GUUAACGGUCAUAGGCCAUGAAAACUAGGAGCACCAUUUCGCUGCCAGUGAAGAAAUGAACAAAGAAAAUCUGGGCCAGGCAGGCAACAAAAGAAAUAGUCUUGCGCUCAACCGGAAAGUCUGUAAUCAUUUUAAGUGUA [G21A U87A A114G G137U]: the self-cleavage stood at 0.57. For GUUAACGGUCAUAGGCCAUGAAGACUAGGAGCACCAUUUCGCUGCCAGUGAAGAAAUGAACAAAGAAAGUCGGGGCCAGGCAGGCAUCAAAAGAAAUAGUCUUGCGCACAACCUGAAAGUCUGUAAUCAUUUUAAGGGUA [G21A A23G A69G U72G U108A A114U], the self-cleavage turned out to be 0.02. As for GUUAACGGUCAUAGGCCAUAGAAACUAGGAGCACCAUUUCGCUGCCAGUGAAGAAAUGAGCAAAGAAAAUCUGGGCCAGGCAGGCAUCAAGAGAAAUAGUCUUGCGCUCAACCAGAGAGUCUGUAAUCAUUUUAAGGGUA [G20A A60G A91G A117G], the self-cleavage came out at 1.02. With GUUAACGGUCAUAGGCCAUGAAAACUAGGAGCACCAUUUCGCUGCCGGUGAAGAAACGAACAAAGAAAAUCUGGGCCUGGCGGGCAUCAAAAGAAAUAGUCCUGCGCUCAACCAGAAAGUCUGUAAUCAUUUUAAAGGUA [G21A A47G U57C A78U A82G U102C G136A] the figure was 0.74; with GUUAACGGUCAUAGGCCAUCGAAACUAGGAGCACCAUUUCGCUGCCAGUGAAGAAAUGAGCAAAGAAAAUCUGGGCCAGGCAGGCAUCAAAAGAAAUAGUCUUGCGCUCAACCAGAAAGUAUGUAAUCAUUUUAAGGGUA [G20C A60G C121A], 1.76. With GUUAACGGUCAUAGGCCAUUGAAACUAGGAGCACCAUUUCGCUGCCAGUGAAGAAAUGAGCAAAGAAAAUCAGGGCCAGGCAGGCAUCAAAAGAUAUAGUCUUGCGCUCAACCUGGAAGUCUGUAAUCAUUUUAAGGGUA [G20U A60G U72A A95U A114U A116G] the figure was 0.25; with GUUAACGGUCAUAGGCCAUGAAAACUAGGAGCACCAUUUCGCUGCCAGUGAAGAAAUGAACAAAGAAAAUCAGGGCCAGGCAGGCAUCAAAAGAAAUAGUCUUGCGCUCAGCCAGAAAGUCUGUAAUCAUUUUAAGGGUA [G21A U72A A111G], 0.02.
